From US20190031729A1 (Pieris, published 2019)

T1: huLAG-3-Fc (human LAG-3 extracellular domain fused to human IgG1 Fc fragment), R&D Systems (human, UniProt P18627 23-450)
T1 construct: extracellular domain; Bought from R&D Systems; also called human LAG-3-Fc fusion; recombinant human LAG-3-Fc; not shown: human IgG1 Fc fragment
T1 sequence (looked up): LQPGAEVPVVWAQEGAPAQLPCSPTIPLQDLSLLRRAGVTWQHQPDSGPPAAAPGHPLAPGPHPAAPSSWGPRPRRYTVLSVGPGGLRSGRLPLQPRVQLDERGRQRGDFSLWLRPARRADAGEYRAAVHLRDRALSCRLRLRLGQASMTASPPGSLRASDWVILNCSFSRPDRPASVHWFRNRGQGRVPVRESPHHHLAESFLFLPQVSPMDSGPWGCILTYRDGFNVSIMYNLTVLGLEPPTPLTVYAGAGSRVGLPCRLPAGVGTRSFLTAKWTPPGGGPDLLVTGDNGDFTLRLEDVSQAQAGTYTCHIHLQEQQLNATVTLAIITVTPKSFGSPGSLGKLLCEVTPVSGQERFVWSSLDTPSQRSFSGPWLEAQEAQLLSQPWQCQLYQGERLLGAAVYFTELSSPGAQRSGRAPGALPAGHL

B1: lipocalin mutein SEQ ID NO: 20 (designed binder)
chain: ASDEEIQDVPGTWYLKAMTVSEEDPEMTLESVTPMTLTTLEGGNLEASVTALIDGRCQEVKNVLEKTDEPGKYTEDGGKHVDYIIRSHVKDHYIFYFEGEGHGTPGRMVALVGRDPTNNLEALEDFEKAAGARGLSTESILIPRQSETCSPGSAWSHPQFEK
notes: Human tear lipocalin mutein; also called optimized LAG-3 specific lipocalin mutein
B2: lipocalin mutein SEQ ID NO: 17 (designed binder)
chain: ASDEEIQDVPGTWYLKAMTVSGEDPELWLESVTPMTLTTLEGGNLEASVTALIDGRCQEVKNVLEKTDEPGKYTEDGGKHVDYIIRSHVKDHYIFYFEGEGYGTPGRMVALVGRDPTNNLEALEDFEKAAGARGLSTESILIPRQSETCSPGSAWSHPQFEK
notes: as for B1
B3: lipocalin mutein SEQ ID NO: 21 (designed binder)
chain: ASDEEIQDVPGTWYLKAMTVSGEDPEMMLESVTPMTLTTLEGGNLEARVTVLIDGRCQEVKNVLEKTDEPGKYTEDGGKHVDYIIRSHVKDHYIFYFEGEGQGTPGRMVALVGRDPTNNLEALEDFEKAAGARGLSTESILIPRQSETCSPGSAWSHPQFEK
notes: as for B1
B4: lipocalin mutein SEQ ID NO: 22 (designed binder)
chain: ASDEEIQDVSGTWYLKAMTVDFVCLNDYPESVTPMTLTTLEGGNLEAKVTMQIWGEPQEVKAVLEKTDEPGKYTADGGKHVAYIIRSHVKDHYIFYSEGYCTGYPVPGVWLVGRDPKNNLEALEDFEKAAGARGLSTESILIPRQSETSSPGSAWSHPQFEK
notes: as for B1
B5: lipocalin mutein SEQ ID NO: 19 (designed binder)
chain: ASDEEIQDVPGTWYLKAMTVSDEDPEMTLESVTPMTLTTLEGGNLEASVTALIDGRCQEVKNVLEKTDEPGKYTEDGGKHVDYIIRSHVKDHYIFYFEGEGQGTPGRMVALVGRDPTNNLEALEDFEKAAGARGLSTESILIPRQSETCSPGSAWSHPQFEK
notes: as for B1
B6: lipocalin mutein SEQ ID NO: 18 (designed binder)
chain: ASDEEIQDVPGTWYLKAMTVSAEDPELVLESVTPMTLTTLEGGNLEASVTALIDGRCQEVKNVLEKTDEPGKYTEDGGKHVDYIIRSHVKDHYIFYFEGEGHGTPARTVALVGRDPTNNLEALEDFEKAAGARGLSTESILIPRQSETCSPGSAWSHPQFEK
notes: as for B1

Experiments:
[1] = target: T1, huLAG-3-Fc (human LAG-3 extracellular …); assay: competition FACS: inhibition of 3 nM huLAG-3-Fc binding to MHC class II on A375 cells
Protocol: Cells were washed twice in ice-cold PBS, re-suspended in PBS-FCS and incubated 30 min on ice with phycoerythrin labelled anti-human IgG Fc antibody (Jackson Immunologics).

[2] = target: T1, huLAG-3-Fc (human LAG-3 extracellular …); assay: SPR Biacore, LAG-3-Fc captured by anti-human IgG Fc, mutein as analyte
Protocol: (§1) The anti-human IgG Fc antibody (GE Healthcare) was immobilized on a CM5 sensor chip using standard amine chemistry: the carboxyl groups on the chip were activated using 1-ethyl-3-(3-dimethylaminopropyl)-carbodiimide (EDC) and N-hydroxysuccinimide (NHS). […] Residual non-reacted NHS-esters were blocked by passing a solution of 1M ethanolamine across the surface. The reference channel was treated in an analogous manner.
(§2) All measurements were performed at 25° C. […] Prior to the protein measurements three startup cycles were performed for conditioning purposes. Data were evaluated with Biacore T200 Evaluation software (V 2.0). Double referencing was used and the 1:1 binding model was used to fit the raw data.

[3] = target: T2, cyLAG-3-Fc (extracellular domain of cynomolgus LAG-3 fused via Factor Xa cleavage site and (G4S)3-linker to … (cynomolgus)); assay: as above
T2 construct: also called recombinant cynomolgus LAG-3
Protocol: as §1, §2

Binder | IC50 [1] | Kd [2] | koff [2] | kon [2] | Kd [3] | koff [3] | kon [3]
B1 | 3.2 nM | 14.7 nM | 0.000932 s⁻¹ | 63400 M⁻¹ s⁻¹ | 18.5 nM | 0.000914 s⁻¹ | 49500 M⁻¹ s⁻¹
B2 | 2.8 nM | 14.9 nM | 0.000612 s⁻¹ | 41000 M⁻¹ s⁻¹ | 23.2 nM | 0.000866 s⁻¹ | 37300 M⁻¹ s⁻¹
B3 | 1.5 nM | 7.09 nM | 0.000725 s⁻¹ | 102000 M⁻¹ s⁻¹ | 11 nM | 0.00104 s⁻¹ | 94900 M⁻¹ s⁻¹
B4 | – | 8.78 nM | 0.000263 s⁻¹ | 29900 M⁻¹ s⁻¹ | 9.3 nM | 0.000263 s⁻¹ | 28300 M⁻¹ s⁻¹
B5 | 3.4 nM | 11.3 nM | 0.000724 s⁻¹ | 64200 M⁻¹ s⁻¹ | 14 nM | 0.000755 s⁻¹ | 53800 M⁻¹ s⁻¹
B6 | – | 103 nM | 0.00212 s⁻¹ | 20600 M⁻¹ s⁻¹ | 159 nM | 0.00316 s⁻¹ | 19800 M⁻¹ s⁻¹
